Laboratory results reported in the supplement of paper PMC4723716.
± gives the uncertainty stated by the source. Over roughly 9,900 compounds, “viability index relative to DMSO control” has its median near 1; the lowest 2% begin near 0.85. The list shows a part of the results.

System: Plasmodium falciparum NF54 stage V gametocytes
Assay: viability index relative to DMSO control (fraction); higher = less gametocyte killing
Conditions: 2.5 µM, incubation time: 72 h
Experimental: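 Broad DOS informer set and blood-stage-active DOS compounds screened in duplicate at 2.5 µM against P. falciparum NF54 stage V gametocytes with the serum-free one-step SaLSSA (1536-well): 72 h at 37 °C under low oxygen, then saponin lysis and MitoTracker Red CMXRos staining, with high-content imaging. Viability index = viable-object count divided by the plate mean of DMSO wells (0 = killed, about 1 = inactive).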

[1] = library set: Broad Institute DOS

| Compound | viability index [1] | viability index (library set: Broad Institute Blood Stage) |
| --- | --- | --- |
| CNC[C@H]1OCCCC[C@@H](C)Oc2ccc(NS(=O)(=O)c3ccc(F)cc3)cc2C(=O)N([C@H](C)CO)C[C@H]1C | 1.06 ± 0.019 | – |
| CCS(=O)(=O)N1[C@H](C#N)[C@@H](c2ccc(-c3cccc(F)c3)cc2)[C@@H]1CO | 1.12 ± 0.043 | – |
| COc1ccc(C#Cc2ccc3c(c2)O[C@@H](CN(C)C(=O)Nc2cccc(OC)c2)[C@@H](C)CN([C@@H](C)CO)S3(=O)=O)cc1 | – | 0.612 ± 0.071 |
| C/C=C/c1ccc([C@@H]2[C@@H](CO)N3C(=O)CN(C(=O)Nc4ccc(F)cc4)C[C@H]23)cc1 | 1.03 ± 0.018 | – |
| C/C=C/c1ccc([C@H]2[C@H]3CNC[C@@H]2N3C(=O)Nc2ccc(C(F)(F)F)cc2)cc1 | 1.12 ± 0.018 | – |
| Cc1cccc(-c2ccc([C@H]3[C@H]4CNC[C@@H]3N4C(=O)Nc3ccccc3Cl)cc2)c1 | 1.04 ± 0.054 | – |
| O=C(Cc1cccnc1)N1CC(=O)N2[C@@H](CO)[C@H](c3ccc(/C=C/c4ccccc4)cc3)[C@@H]2C1 | 1.015 ± 0.0057 | – |
| CC(C)CC#Cc1ccc([C@H]2[C@@H](CO)N3C(=O)CN(C(=O)c4ccccn4)C[C@@H]23)cc1 | 0.975 ± 0.037 | – |
| Cc1noc(C)c1NC(=O)N(C)C[C@H]1OCCCC[C@H](C)Oc2ccc(NC(=O)Nc3ccc(C(F)(F)F)cc3)cc2C(=O)N([C@H](C)CO)C[C@@H]1C | 1.09 ± 0.011 | – |
| Cc1ccc(S(=O)(=O)N[C@H]2C=C[C@@H](CC(=O)NCc3ccc(Cl)c(Cl)c3)O[C@H]2CO)cc1 | 0.972 ± 0.076 | – |
| CCN1CC(=O)N2[C@H](CO)[C@H](c3ccc(Br)cc3)[C@H]2C1 | 0.997 ± 0.093 | – |
| N#Cc1ccc(-c2ccc3c(c2)[C@H]2[C@H](CCN2C(=O)C2CCCCC2)[C@@H](CO)N3)cc1 | 1.03 ± 0.078 | – |
| COCC(=O)Nc1ccc2c(c1)[C@@H]1C[C@@H](CC(=O)N3CCOCC3)O[C@@H](CO)[C@@H]1O2 | 1.02 ± 0.051 | – |
| CCCNC(=O)N1C[C@]2(CCN(CC2)S(=O)(=O)CC)c2c([nH]c3cc(OC)ccc23)[C@H]1CO | 0.976 ± 0.043 | – |
| COc1cccc(NC(=O)C[C@H]2CC[C@@H]3[C@H](COc4ccc(NS(=O)(=O)c5cccc(F)c5)cc4C(=O)N3C)O2)c1 | 1.13 ± 0.1 | – |
| COc1cccc(NC(=O)N[C@H]2CC[C@H](CC(=O)N3CCN(C)CC3)O[C@@H]2CO)c1 | 1.12 ± 0.1 | – |
| COc1cccc(NC(=O)N2[C@@H](CO)[C@H](c3ccccc3)[C@@H]2CNCC(C)C)c1 | 0.956 ± 0.041 | – |
| COc1cccc(NC(=O)N[C@H]2CC[C@@H](CC(=O)N3CCN(C)CC3)O[C@H]2CO)c1 | 1.11 ± 0.026 | – |
| O=C(CCN1CCCCC1)N[C@@H]1CC[C@H](CC(=O)N2CCC(Cc3ccccc3)CC2)O[C@H]1CO | 0.997 ± 0.096 | – |
| COc1cccc(-c2ccc([C@@H]3[C@@H]4CN(Cc5ccccn5)C[C@H]3N4)cc2)c1 | 1.03 ± 0.033 | – |
| COc1ccc(S(=O)(=O)Nc2ccc3c(c2)C(=O)N([C@H](C)CO)C[C@H](C)[C@H](CN(C)C(=O)Nc2c(C)noc2C)OCCCC[C@H](C)O3)cc1 | 1.1 ± 0.11 | – |
| O=C(Nc1cc(F)ccc1F)N1CC(=O)N2[C@H](C1)[C@@H](c1ccc(/C=C/c3ccccc3)cc1)[C@@H]2CO | 1.16 ± 0.05 | – |
| COc1ccc(C#Cc2ccc([C@H]3[C@H](CO)N4CCCCN(C)C[C@@H]34)cc2)cc1 | 1.029 ± 0.0018 | – |

| Compound | viability index [1] | viability index (library set: Broad Institute Blood Stage) |
| --- | --- | --- |
| CC(C)C#Cc1ccc([C@@H]2[C@H]3CN(C(=O)NC4CCCC4)CC(=O)N3[C@H]2CO)cc1 | 1.06 ± 0.044 | – |
| COc1ccccc1NC(=O)Nc1ccc2c(c1)C(=O)N(C)[C@H]1CC[C@H](CC(=O)Nc3ccc4c(c3)COC4)O[C@@H]1CO2 | 0.941 ± 0.088 | – |
| CCC(=O)N1[C@H](CO)[C@@H](c2ccccc2)[C@@H]1CN(C)C(=O)CN1CCOCC1 | 1.04 ± 0.05 | – |
| COc1ccc(-c2ccc([C@H]3[C@H]4CN(C(=O)C5CC5)CC(=O)N4[C@H]3CO)cc2)cc1 | 1.09 ± 0.078 | – |
| CCC(=O)N1[C@@H]2c3ccc(-c4ccc(F)cc4)c(=O)n3C[C@@H]2[C@@H](CO)[C@@H]1C(=O)N(C)C | 1.078 ± 0.0015 | – |
| CO[C@H]1CN(C)C(=O)c2cc(NC(=O)C3CCCCC3)ccc2OC[C@@H](C)N(Cc2cccnc2)C[C@H]1C | 1.1 ± 0.097 | – |
| O=C(C[C@H]1C[C@@H]2c3cc(NC(=O)NC4CCCC4)ccc3O[C@@H]2[C@H](CO)O1)NCc1ccccc1F | 1.09 ± 0.016 | – |
| CO[C@@H]1CC[C@@H]2CCOc3c(C#N)cccc3C(=O)N(C)CC3(CCCCC3)CC(=O)N(C)C[C@H]1O2 | 0.9758 ± 0.0056 | – |
| OC[C@@H]1Nc2ccc(C#Cc3ccc(F)cc3)cc2[C@@H]2[C@H]1CCN2Cc1ccc2c(c1)OCO2 | 1.06 ± 0.049 | – |
| O=C(O)C[C@@H]1C=C[C@H](NC(=O)Nc2cc(F)ccc2F)[C@H](CO)O1 | 0.985 ± 0.029 | – |
| CC(C)CC#Cc1ccc([C@@H]2[C@H]3CN(C(=O)c4ccccn4)CC(=O)N3[C@H]2CO)cc1 | 0.991 ± 0.013 | – |
| CC(C)CC#Cc1ccc([C@H]2[C@H](CO)N3C(=O)CN(C(=O)c4cccc(F)c4)C[C@@H]23)cc1 | 1.05 ± 0.075 | – |
| O=C(CC1CC1)N1CC(=O)N2[C@H](CO)[C@@H](c3ccc(C#Cc4cccc(F)c4)cc3)[C@H]2C1 | 0.941 ± 0.03 | – |
| CN(C)CC(=O)N1[C@@H](CO)[C@H](c2ccccc2)C12CN(C(=O)c1ccc(F)cc1)C2 | 1.094 ± 0.0026 | – |
| COCC(=O)N1C[C@H]2[C@@H](c3ccccc31)[C@H](CO)N2Cc1cc(F)ccc1F | 0.97 ± 0.028 | – |
| FC(F)(F)c1ccccc1CN1[C@@H]2CNC[C@H]1[C@H]2c1ccc(-c2ccncc2)cc1 | 1.02 ± 0.021 | – |
| OC[C@@H]1[C@H](c2ccc(Br)cc2)[C@@H]2CNCCCCN12 | 0.997 ± 0.012 | – |
| C[C@H]1CN([C@@H](C)CO)C(=O)CCCn2nncc2CO[C@H]1CN(C)S(=O)(=O)c1ccc2c(c1)OCCCO2 | 1.07 ± 0.073 | – |
| CCC(=O)N1CC[C@H]2[C@H](CO)Nc3ccc(C#Cc4ccccc4F)cc3[C@H]21 | 1.03 ± 0.027 | – |
| C[C@H]1CN([C@@H](C)CO)C(=O)c2cccc(NS(=O)(=O)c3ccc(F)cc3)c2O[C@H]1CN(C)Cc1ccc(Cl)c(Cl)c1 | 1.07 ± 0.021 | – |
| COc1ccc2c3c([C@H](CO)N(Cc4ccccc4)C[C@]33CN(C3)C(=O)c3ccccc3F)n(C)c2c1 | 0.965 ± 0.049 | – |
| C[C@H]1CN([C@@H](C)CO)C(=O)c2cc(-c3ccc(C#N)cc3)cnc2O[C@@H]1CN(C)Cc1cccnc1 | 1.007 ± 0.008 | – |
| CC(C)C#Cc1ccc([C@@H]2[C@H]3CN(C(=O)Cc4ccccc4)CC(=O)N3[C@H]2CO)cc1 | 0.864 ± 0.047 | – |
